Results reported in the supplement of paper PMC11741623.
Some of the results follow. Interaction screen of human proteins with wild-type SARS-CoV-2 proteins by split-DHFR complementation in yeast, 1 µg/mL methotrexate. Value = fitness of the pair (three or more lineages) minus that of the viral protein without a human partner, on a scale set by negative (0) and fused positive (1) controls, mean of up to three cultures; higher = more likely to interact. Active = false discovery rate below 0.05 (one-sided t-test) in at least one culture. Nearly all pairs are not hits, and differences among them are mostly noise (correlation between cultures about 0.3); most hits were seen in one culture only. Human sequences are the Swiss-Prot entries looked up by gene name; the clone may be another isoform. NSP2 values were corrected by the authors for a growth advantage. Listed are human proteins with a hit and a random twelfth of the others.

B1: TNP1, P09430 (protein)
chain: MSTSRKLKSHGMRRSKSRSPHKGVKRGGSKRKYRKGNLKSRKRGDDANRNYRSHL
B2: FMO1, Q01740 (protein)
chain: MAKRVAIVGAGVSGLASIKCCLEEGLEPTCFERSDDLGGLWRFTEHVEEGRASLYKSVVSNSCKEMSCYSDFPFPEDYPNYVPNSQFLEYLKMYANHFDLLKHIQFKTKVCSVTKCSDSAVSGQWEVVTMHEEKQESAIFDAVMVCTGFLTNPYLPLDSFPGINAFKGQYFHSRQYKHPDIFKDKRVLVIGMGNSGTDIAVEASHLAEKVFLSTTGGGWVISRIFDSGYPWDMVFMTRFQNMLRNSLPTPIVTWLMERKINNWLNHANYGLIPEDRTQLKEFVLNDELPGRIITGKVFIRPSIKEVKENSVIFNNTSKEEPIDIIVFATGYTFAFPFLDESVVKVEDGQASLYKYIFPAHLQKPTLAIIGLIKPLGSMIPTGETQARWAVRVLKGVNKLPPPSVMIEEINARKENKPSWFGLCYCKALQSDYITYIDELLTYINAKPNLFSMLLTDPHLALTVFFGPCSPYQFRLTGPGKWEGARNAIMTQWDRTFKVIKARVVQESPSPFESFLKVFSFLALLVAIFLIFL
B3: PLSCR1, O15162 (protein)
chain: MDKQNSQMNASHPETNLPVGYPPQYPPTAFQGPPGYSGYPGPQVSYPPPPAGHSGPGPAGFPVPNQPVYNQPVYNQPVGAAGVPWMPAPQPPLNCPPGLEYLSQIDQILIHQQIELLEVLTGFETNNKYEIKNSFGQRVYFAAEDTDCCTRNCCGPSRPFTLRIIDNMGQEVITLERPLRCSSCCCPCCLQEIEIQAPPGVPIGYVIQTWHPCLPKFTIQNEKREDVLKISGPCVVCSCCGDVDFEIKSLDEQCVVGKISKHWTGILREAFTDADNFGIQFPLDLDVKMKAVMIGACFLIDFMFFESTGSQEQKSGVW
B4: UQCR10, Q9UDW1 (protein)
chain: MAAATLTSKLYSLLFRRTSTFALTIIVGVMFFERAFDQGADAIYDHINEGKLWKHIKHKYENK

target: SARS-CoV-2 M; test: yeast fitness gain over the viral ORF with no human partner (scaled fitness); higher = more likely to interact
Experimental: (§1)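 Split mouse DHFR complementation in pooled diploid yeast: human ORFeome clones carry one fragment and viral ORFs the other; barcoded lineages compete in 1 µg/mL methotrexate and fitness is read by barcode sequencing in up to three cultures.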

Binder	yeast fitness gain
B1	inactive: 0.00736
B2	inactive: 0.119
B3	inactive: 0.0522
B4	inactive: 0.0268

target: SARS-CoV-2 NSP1; test: as above
Experimental: as §1

Binder	yeast fitness gain
B1	inactive: 0.0786
B4	inactive: 0.037

target: SARS-CoV-2 NSP10; test: as above
Experimental: as §1

Binder	yeast fitness gain
B1	inactive: 0.0424
B2	inactive: 0.0362
B3	inactive: -0.0909
B4	inactive: -0.0215

target: SARS-CoV-2 NSP12; test: as above
Experimental: as §1

Binder	yeast fitness gain
B1	inactive: 0.033
B2	inactive: -0.369
B3	inactive: -0.236
B4	inactive: -0.0306

target: SARS-CoV-2 NSP13; test: as above
Experimental: as §1

Binder	yeast fitness gain
B1	inactive: 0.00908
B2	inactive: -0.231
B3	inactive: 0.0473
B4	inactive: 0.00656

target: SARS-CoV-2 NSP15; test: as above
Experimental: as §1

Binder	yeast fitness gain
B1	inactive: 0.0725
B4	inactive: 0.0188

target: SARS-CoV-2 NSP2; test: as above
Experimental: as §1

Binder	yeast fitness gain
B1	inactive: -0.0749
B2	inactive: -0.0509
B3	inactive: -0.152
B4	inactive: -0.0573

target: SARS-CoV-2 NSP4; test: as above
Experimental: as §1

Binder	yeast fitness gain
B1	inactive: -0.123
B4	inactive: -0.0594

target: SARS-CoV-2 NSP5; test: as above
Experimental: as §1

Binder	yeast fitness gain
B1	inactive: -0.0973
B4	inactive: -0.137

target: SARS-CoV-2 NSP6; test: as above
Experimental: as §1

Binder	yeast fitness gain
B1	inactive: 0.00389
B4	inactive: -0.0399

target: SARS-CoV-2 NSP7; test: as above
Experimental: as §1

Binder	yeast fitness gain
B1	inactive: 0.0101
B4	inactive: 0.0825

target: SARS-CoV-2 NSP8; test: as above
Experimental: as §1

Binder	yeast fitness gain
B1	inactive: 0.0302
B4	inactive: -0.0482

target: SARS-CoV-2 ORF10; test: as above
Experimental: as §1

Binder	yeast fitness gain
B1	inactive: 0.0925
B4	inactive: 0.00558

target: SARS-CoV-2 ORF3B; test: as above
Experimental: as §1

Binder	yeast fitness gain
B1	inactive: -0.0157
B2	inactive: -0.0252
B3	inactive: 0.0158
B4	inactive: 0.000584

target: SARS-CoV-2 ORF6; test: as above
Experimental: as §1

Binder	yeast fitness gain
B1	inactive: 0.0715
B2	inactive: -0.243
B3	inactive: 0.0455
B4	inactive: -0.0159

target: SARS-CoV-2 ORF7A; test: as above
Experimental: as §1

Binder	yeast fitness gain
B1	inactive: -0.148
B4	inactive: 0.0329

target: SARS-CoV-2 ORF7B; test: as above
Experimental: as §1

Binder	yeast fitness gain
B1	inactive: -0.0094
B4	inactive: -0.00665

target: SARS-CoV-2 ORF8; test: as above
Experimental: as §1

Binder	yeast fitness gain
B1	inactive: -0.0217
B2	inactive: 0.0115
B3	inactive: -0.00231
B4	inactive: -0.00605

target: SARS-CoV-2 ORF9B; test: as above
Experimental: as §1

Binder	yeast fitness gain
B1	inactive: 0.0584
B3	inactive: -0.000879
B4	inactive: -0.0272

target: SARS-CoV-2 ORF9Bwu (the 73-codon ORF); test: as above
Experimental: as §1

Binder	yeast fitness gain
B1	inactive: 0.0578
B4	inactive: -0.00969

target: SARS-CoV-2 S; test: as above
Experimental: as §1

Binder	yeast fitness gain
B1	inactive: -0.0169
B2	inactive: -0.0654
B4	inactive: 0.084

target: SARS-CoV-2 NSP9; test: as above
Experimental: as §1

Binder	yeast fitness gain
B2	inactive: -0.11
B4	inactive: 0.0139

target: SARS-CoV-2 N; test: as above
Experimental: as §1

Binder	yeast fitness gain
B4	inactive: 0.172

target: SARS-CoV-2 NSP16; test: as above
Experimental: as §1

Binder	yeast fitness gain
B4	inactive: -0.138
